Out of some 300,000 compounds screened, about 1,200 (0.4%) were called active. The shares of active, inactive and inconclusive entries below differ from those in the screen. Calls follow the shape of the dose curve; as a rule, active = well fitted inhibition curve with a large enough effect; inconclusive = small, poorly fitted or top-dose-only effect, or another doubt; inactive = no such curve, though single readings can be large or run the other way. A potency beside an inconclusive call is a rough fit, not a confirmed value.
Each compound was assayed against Lysosomal alpha-glucosidase (Homo sapiens) (UniProt P10253) (assay: qHTS Assay for Inhibitors and Activators of Human alpha-Glucosidase Cleavage of Glycogen). Details: recombinant GAA, glycogen substrate, Amplex Red glucose oxidase fluorescence; activity change, negative = inhibition: at 76.4 µM (top of the series) unless noted.
Method in brief: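 Recombinant enzyme (4 nM final) with compounds titrated up to 77 uM and bovine liver glycogen (30 ug) in citrate pH 5.0, 0.01% Tween-20, 37 C 40 min. Released glucose detected by Amplex Red/glucose oxidase (Ex 573/Em 610); AC50 from Hill fits.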
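For activity change, negative = inhibition in this document: 0% = full enzyme reaction and -100% = no-enzyme basal signal.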
Potency is read from the fitted curve at half-maximal effect.

| SMILES | Potency | activity change, negative = inhibition |
| --- | --- | --- |
| CCOC(=O)c1[nH]c2ccccc2c1NC(=S)Nc1ccccc1C | active: 14.1 µM |  |
| CCC1CN(C(=O)Nc2ccccc2C(F)(F)F)c2ccccc2S1 (stereo not drawn) | inconclusive: 35.5 µM [inhibitor, partial curve] |  |
| CCN(Cc1ccccc1)C(=O)CSc1nc(C)cc(=O)[nH]1 | inconclusive: 56.2 µM [inhibitor, partial curve, poor fit] |  |
| COC(=O)Cc1nc(Nc2ccccc2)sc1C | inconclusive: 50.1 µM [inhibitor, single point] |  |
| Cc1nn(C)c(C)c1C1Nc2ccccc2C(=O)N1O (stereo not drawn) | inconclusive: 39.8 µM [inhibitor, partial curve] |  |
| Cc1cc(=O)oc2cc(NC(=O)C3CCCC3)ccc12 |  | inconclusive: 30% [activator] |
| Cc1cc(CNC(=O)c2cccc([N+](=O)[O-])c2)c2ccccc2n1 | inconclusive: 39.5 µM [inhibitor, single point] |  |
| NNc1nc(-c2ccccc2)cc(-c2ccccc2O)n1 | active: 11.2 µM |  |
| COc1cc(/C=N/NS(=O)(=O)c2ccc(C)c([N+](=O)[O-])c2)ccc1O | inconclusive: 10 µM [inhibitor, partial curve] |  |
| Oc1ccc(-c2nc(-c3ccc(O)c(O)c3)cs2)cc1 | active: 11.1 µM |  |
| CN(/N=C/Cc1nnnn1-c1ccc(Cl)cc1)c1ccccc1 | inconclusive: 14.1 µM [inhibitor, partial curve] |  |
| C/C(=N\NC(=O)c1cc(O)ccc1O)c1cccc(NC(=O)c2cccc(Cl)c2)c1 | inconclusive: 3.55 µM [inhibitor, full curve] |  |
| COc1ccc2c(Sc3ccc(Cl)cc3)c(C(=O)N3CCCCC3)[nH]c2c1 | inactive |  |
| CCCCn1c(N)c(NCCC(C)C)c(=O)[nH]c1=O | inconclusive: 31.4 µM [activator, single point] |  |
| Nc1ccc(O)cc1C(=O)OCC(=O)c1ccc(C2CCCCC2)cc1 | inconclusive: 14.1 µM [inhibitor, partial curve] |  |
| C/C(=C\C(=O)c1ccccc1)Nc1ccc(O)cc1 | active: 39.8 µM |  |
| NNC(=S)NCc1ccco1 | inconclusive: 28.2 µM [inhibitor, single point] |  |
| Cc1ccc(CNC(=O)c2ccc(CS(=O)(=O)c3ccccc3C)o2)cc1 | inconclusive: 11.2 µM [inhibitor, partial curve] |  |
| CCOc1cc(NC2CS(=O)(=O)CC2O)c(OCC)cc1NC(=O)c1ccccc1 (stereo not drawn) | inconclusive: 31.6 µM [inhibitor, partial curve] |  |
| CC(C(=O)Nc1ccccc1F)N1CCN(C)CC1 (stereo not drawn) | inactive |  |
| CCN1CCCc2cc(CN(CCN3CCOCC3)C(=S)Nc3ccc(OC)cc3)ccc21 | inconclusive: 3.14 µM [inhibitor, single point] |  |
| CC(C)COc1ccc(-c2cc(C(=O)NN)[nH]n2)cc1 | inconclusive: 28.2 µM [inhibitor, partial curve] |  |
| COC(=O)c1cc2oc3ccccc3c2n1CC(=O)Nc1ccc(C)cc1C | inactive |  |
| CCOC(=O)c1cc(C(=O)NN)c(=O)[nH]c1C | inconclusive: 44.7 µM [inhibitor, single point] |  |
| CC1(C)CN=c2s/c(=C\c3ccc(Cl)cc3)c(=O)n2C1 | inconclusive: 25.1 µM [inhibitor, partial curve] |  |

| SMILES | Potency | activity change, negative = inhibition |
| --- | --- | --- |
| CC1(C)C([N+](=O)[O-])C(c2ccc(O)cc2)NC(c2ccc(O)cc2)C1[N+](=O)[O-] (stereo not drawn) | inactive |  |
| Cc1[nH]n(-c2ccccc2)c(=O)c1-c1ccccc1 | inconclusive: 35.5 µM [inhibitor, partial curve] |  |
| COc1ccc(-c2noc(CC(=O)Nc3ccc(Br)cc3C)n2)cc1 | inactive |  |
| CCOc1ccc(C(=O)c2cn(CC(=O)Nc3ccc(F)cc3)c3cc4c(cc3c2=O)OCCO4)cc1 | inactive |  |
| NC(=S)NNC(=O)c1cc(C(F)(F)F)cc(C(F)(F)F)c1 | inconclusive: 39.8 µM [inhibitor, single point] |  |
| Cc1cccc(NC(=S)NNc2ncc(C(F)(F)F)cc2Cl)c1 | inconclusive: 39.5 µM [inhibitor, single point] |  |
| CCOc1ccccc1C1C(C#N)=C(N)Oc2cc(N)ccc21 (stereo not drawn) | inconclusive: 28.2 µM [inhibitor, partial curve] |  |
| O=c1oc2ccccc2nc1/C=C(O)/C=C/c1ccc(F)cc1 | inconclusive: 35.5 µM [inhibitor, single point] |  |
| O=C(O)CSCC(=O)N1CCN(S(=O)(=O)c2ccccc2)CC1 | inactive |  |
| CCc1ccc(/C=N/Nc2nn[nH]n2)cc1 | inconclusive: 8.91 µM [inhibitor, partial curve] |  |
| CCOC(=O)c1ccc(N2C(=O)CC(C(=O)OC)=C2C)cc1 | inconclusive: 50.1 µM [inhibitor, single point] |  |
| C=CCOC(=O)Nc1c(C(=O)OC)[nH]c2ccccc12 | inactive |  |
| NNC(=O)c1cc2c(N3CCC(Cc4ccccc4)CC3)ncnc2s1 | inconclusive: 15.8 µM [inhibitor, partial curve] |  |
| NC(=S)N/N=C/c1ccccc1O | inconclusive: 31.6 µM [inhibitor, single point] |  |
| NC(=S)Nc1nc2ccccc2s1 | inconclusive: 39.5 µM [inhibitor, single point] |  |
| CC(C)OCCCn1c(NN)nc2ccccc2c1=O | inconclusive: 31.6 µM [inhibitor, partial curve] |  |
| O=C(O)c1cc(NCc2cccs2)ccc1N1CCOCC1 | active: 9.92 µM |  |
| CCOc1cc(C2CC(=O)Nc3cc4c(cc32)OCCO4)ccc1O (stereo not drawn) | inconclusive: 12.6 µM [inhibitor, partial curve] |  |
| CCc1c(C)c(C#N)c2[nH]c3ccccc3n2c1=S | inconclusive: 28.2 µM [inhibitor, single point] |  |
| CC(C)c1ccc(NC(=S)NNC(=O)c2cccnc2)cc1 | inconclusive: 39.8 µM [inhibitor, single point] |  |
| CN1CCC(CN)(N2CCN(c3ccccc3)CC2)CC1 | inconclusive: 15.8 µM [inhibitor, partial curve] |  |
| CN(C)S(=O)(=O)c1cccc(NC(=S)N/N=C/C(=O)c2ccccc2)c1 | inconclusive: 28.2 µM [inhibitor, single point] |  |
| CCCCCOc1ccc(N2C(=O)CC(N(O)c3ccccc3)C2=O)cc1 (stereo not drawn) | inconclusive: 14 µM [inhibitor, partial curve, poor fit] |  |
| O=c1oc2ccccc2c2oc3cc(O)c(O)cc3c12 | active: 28.2 µM |  |
| CCC(=O)NC(c1cccs1)c1ccc2cccnc2c1O (stereo not drawn) | inactive |  |

| SMILES | Potency | activity change, negative = inhibition |
| --- | --- | --- |
| Cc1c(C(=O)O)c2cc(O)ccc2n1-c1ccccc1 | active: 25.1 µM |  |
| Cc1ccc(-c2csc3nc[nH]c(=S)c23)cc1 | inconclusive: 39.8 µM [inhibitor, partial curve] |  |
| COC(=O)C1=NN(C(=O)c2ccc(Cl)cc2)C(O)(c2ccccc2)C1 (stereo not drawn) | inconclusive: 31.6 µM [inhibitor, partial curve] |  |
| c1ccc(C2=Nc3cccc4cccc(c34)N2)cc1 | inconclusive: 39.5 µM [activator, partial curve] |  |
| O=C(NCCc1cccs1)c1ccc(Cn2c(SCc3ccc(F)cc3)nc3cccnc32)cc1 | inactive |  |
| Oc1ccccc1C1Nc2cccc3cccc(c23)N1 | inconclusive: 3.52 µM [inhibitor, single point] |  |
| CC(=O)C1=C(c2ccc(Br)cc2)C(=O)c2ccccc2C1=O | inactive |  |
| Cc1ccnc(NC(=O)Cn2ccc([N+](=O)[O-])n2)c1 | inconclusive: 50.1 µM [inhibitor, single point] |  |
| CC1=NN(C(C)C)C(=O)C1 | inconclusive: 6.26 µM [inhibitor, full curve, poor fit] |  |
| Cc1ccnc(NC(=O)CCC(=O)N(CC(=O)NC(C)(C)C)C2CCCC2)c1 | inconclusive: 39.5 µM [inhibitor, single point] |  |
| COc1ccc(NCc2nnc(SCC(=O)NCc3ccco3)n2-c2ccccc2OC)cc1 | inconclusive: 56.2 µM [inhibitor, single point] |  |
| COc1cccc(CNC(=O)CCn2c(=O)c3cccn3c3ccc(F)cc32)c1OC | inactive |  |
| COc1ccc(NC(=S)Nc2cc(C)[nH]n2)cc1Cl | inconclusive: 39.8 µM [inhibitor, single point] |  |
| COC(=O)Cc1ccc(NC(=S)NNC(=O)C2CC2)cc1 | inconclusive: 35.5 µM [inhibitor, partial curve] |  |
| COc1cc(CN(C(=O)c2ccco2)c2ccc(C)cc2)ccc1O | inconclusive: 56.2 µM [inhibitor, partial curve] |  |
| COC(=O)c1cccc(Oc2nc3c(c(=O)n(C)c(=O)n3C)n2C(C)C)c1 | inconclusive: 7.94 µM [inhibitor, full curve, poor fit] |  |
| O=C(Cc1ccc(Br)cc1)N1CCN(c2ccccc2O)CC1 | active: 14.1 µM |  |
| C=CCOc1ccc(/C=N/Nc2ccccn2)cc1OC | inconclusive: 39.5 µM [inhibitor, single point] |  |
| C/C(=N\Nc1ccccn1)c1ccc(OC(F)F)cc1 | inconclusive: 50.1 µM [inhibitor, single point] |  |
| CCc1ccc(-c2cn3c(n2)sc2cc(C(=O)NCCc4ccc(OC)cc4OC)ccc23)cc1 | inactive |  |
| CC(C)(C)OC(=O)NNC(=S)NCc1ccc(Cl)cc1 | inconclusive: 28 µM [inhibitor, single point] |  |
| Cc1ccc2c(c1)Sc1c(ccc3ccccc13)N2 | inconclusive: 28.2 µM [inhibitor, single point] |  |
| CCC/C=N/NC(=O)c1[nH]c2c([N+](=O)[O-])cccc2c1C | inconclusive: 20 µM [inhibitor, partial curve] |  |

Reference: PubChem BioAssay AID2100 (National Center for Advancing Translational Sciences (NCATS), 2009)
